In the supplement of paper PMC9446081:
Out of some 39,000 compounds screened, about 220 (0.56%) showed activity. Some of the results follow.

System: Escherichia coli K-12 BW25113
Assay: relative growth (OD600 normalised to plate interquartile mean) (fraction); higher = less growth inhibition, active = 0.2 or less
Conditions: 50 µM; LB; incubation time: overnight (16-24 h)
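Further: static incubation at 37 °C against the wild-type strain, values averaged over two biological replicates.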

SMILES | relative growth
COC(=O)c1ccc(O)cc1 | inactive: 1.01
C[C@@H]1CN([C@@H](C)CO)S(=O)(=O)c2ccc(C#CC(C)(C)O)cc2O[C@@H]1CN(C)Cc1ccncc1 | inactive: 0.986
CC(C)NC(=O)N(C)C[C@@H]1Oc2ccc(NC(=O)CCC(F)(F)F)cc2CC(=O)N([C@@H](C)CO)C[C@@H]1C | inactive: 0.984
C[C@@H](O)CC(C)(C)O | inactive: 0.997
C/C=C(/C)C(=O)O[C@@H]1[C@H](OC(C)=O)[C@]2(CO)[C@H](O)C[C@]3(C)C(=CC[C@H]4[C@@]5(C)CC[C@H](O[C@@H]6O[C@H](C(=O)O)[C@@H](O[C@@H]7O[C@H](CO)[C@@H](O)[C@H](O)[C@H]7O)[C@H](O)[C@H]6O[C@@H]6O[C@H](CO)[C@@H](O)[C@H](O)[C@H]6O)[C@](C)(CO)[C@@H]5CC[C@]43C)[C@@H]2CC1(C)C | inactive: 0.992
Cc1ccc(S(=O)(=O)c2c[nH]c(=O)[nH]2)cc1 | inactive: 1
C[C@@H]1CN([C@@H](C)CO)C(=O)c2cc(NC(=O)CCCN(C)C)ccc2O[C@H]1CN(C)Cc1ccc(Oc2ccccc2)cc1 | inactive: 0.995
Cc1cc(C(=O)Nc2cccc3c2O[C@H](CN(C)S(=O)(=O)c2ccc(F)cc2)[C@@H](C)CN([C@@H](C)CO)C3=O)n(C)n1 | inactive: 1.02
COc1ccc(S(=O)(=O)Nc2ccc3c(c2)CC(=O)N([C@@H](C)CO)C[C@@H](C)[C@@H](CN(C)C(=O)NC(C)C)O3)cc1 | inactive: 0.997
O=C(C[C@H]1C=C[C@H](NC(=O)CN2CCOCC2)[C@@H](CO)O1)NCCc1ccncc1 | inactive: 1.01
COc1ccc(CN(C)C[C@@H]2OCCCC[C@@H](C)Oc3ccc(NC(=O)Nc4ccc(OC)cc4)cc3C(=O)N([C@@H](C)CO)C[C@@H]2C)cc1 | inactive: 0.93
O=C(C=Cc1ccccc1)c1ccc(O)cc1 | inactive: 0.823
Cc1ccc(S(=O)(=O)N(C)C[C@H]2Oc3ccc(NC(=O)C4CC4)cc3CC(=O)N([C@H](C)CO)C[C@H]2C)cc1 | inactive: 0.991
C[C@@H]1CCCCO[C@H](CN(C)Cc2ccc(C(F)(F)F)cc2)[C@@H](C)CN([C@@H](C)CO)C(=O)c2cc(NC(=O)Cc3ccccc3)ccc2O1 | inactive: 0.988
O=C(C[C@@H]1C[C@H]2c3cc(NC(=O)c4ccc5c(c4)OCO5)ccc3O[C@H]2[C@H](CO)O1)NCc1ccccn1 | inactive: 0.999
COc1ccccc1S(=O)(=O)N(C)C[C@H]1OCc2cnnn2CCCC(=O)N([C@H](C)CO)C[C@@H]1C | inactive: 1
CN(CC(=O)O)[C@H]1CCS(=O)(=O)C1 | inactive: 1
Nc1c[nH]ccc1=O | inactive: 0.983
C[C@@H]1CCCCO[C@@H](CN(C)Cc2ccccc2)[C@@H](C)CN([C@H](C)CO)C(=O)c2cc(NC(=O)c3ccccc3)ccc2O1 | inactive: 0.972
COc1ccc(S(=O)(=O)N(C)C[C@@H]2OCCCC[C@@H](C)Oc3ccc(NC(=O)Nc4ccc(F)cc4)cc3C(=O)N([C@@H](C)CO)C[C@H]2C)cc1 | inactive: 1.02
COc1ccc(CN(C)C[C@H]2Oc3ccc(NC(=O)Nc4ccc(C(F)(F)F)cc4)cc3C(=O)N([C@@H](C)CO)C[C@@H]2C)cc1 | inactive: 0.942

SMILES | relative growth
C[C@@H]1CN([C@H](C)CO)C(=O)c2cccc(NS(=O)(=O)c3cn(C)cn3)c2O[C@@H]1CN(C)S(C)(=O)=O | inactive: 0.985
CN1C(=S)N[C@@H]2CS(=O)(=O)C[C@@H]21 | inactive: 1.04
C[C@H](CO)N1C[C@H](C)[C@H](CN(C)C(=O)C2CCCCC2)OCCCC[C@H](C)Oc2ccc(NC(=O)Nc3ccc(C(F)(F)F)cc3)cc2C1=O | inactive: 1.02
CNC(=O)N1CCN(Cc2cnn(C)c2)C[C@]2(CCCC(=O)N2)C1 | inactive: 0.985
CCn1ncc(NC(=O)Cn2ccc(C(=O)OC)n2)n1 | inactive: 1.04
CNC(=O)C[C@H]1CC[C@H]2[C@@H](COC[C@@H](O)CN2C(=O)c2ccc3c(c2)OCO3)O1 | inactive: 1.02
Cc1noc(C)c1S(=O)(=O)Nc1ccc2c(c1)CC(=O)N([C@H](C)CO)C[C@@H](C)[C@H](CN(C)Cc1ccc(C(=O)O)cc1)O2 | inactive: 1.05
CC(C)NC(=O)Nc1ccc2c(c1)CC(=O)N([C@H](C)CO)C[C@H](C)[C@H](CN(C)S(=O)(=O)c1ccc(F)cc1)O2 | inactive: 1.02
COc1cccc(C(=O)Nc2ccc3c(c2)C(=O)N(C)[C@H]2CC[C@H](CC(=O)Nc4ccc5c(c4)CCCC5)O[C@@H]2CO3)c1 | inactive: 0.998
C[C@@H]1CN([C@@H](C)CO)C(=O)c2cc(NS(=O)(=O)c3cn(C)cn3)ccc2O[C@@H](C)CCCCO[C@H]1CN(C)S(=O)(=O)c1ccc(F)cc1 | inactive: 1.02
CCN(CC)CCNC(=O)COc1ccc(OC)cc1.Cl | inactive: 0.98
CC(=O)c1ccc(O)c(C(N)=O)c1 | inactive: 0.976
C[C@@H]1CCCCO[C@@H](CN(C)Cc2ccncc2)[C@H](C)CN([C@H](C)CO)C(=O)c2cc(NS(C)(=O)=O)ccc2O1 | inactive: 1
C[C@H]1CN([C@@H](C)CO)C(=O)Cc2cc(NC(=O)C3CC3)ccc2O[C@@H]1CN(C)C(=O)Nc1ccccc1 | inactive: 0.988
C[C@H](CO)N1C[C@H](C)[C@@H](CN(C)C(=O)Nc2cccc3ccccc23)Oc2ccc(NC(=O)Nc3ccc(C(F)(F)F)cc3)cc2C1=O | inactive: 1.02
C[C@H](CO)N1C[C@H](C)[C@@H](CN(C)S(=O)(=O)c2cn(C)cn2)Oc2ccc(NC(=O)Cn3cnnn3)cc2CC1=O | inactive: 1
NCCC(=O)NC(Cc1c[nH]cn1)C(=O)O (configuration not stated) | inactive: 0.933
CC(C)C#Cc1ccc2c(c1)O[C@@H](CN(C)C(=O)c1cccc(F)c1)[C@H](C)CN([C@@H](C)CO)S2(=O)=O | inactive: 0.921
COc1ccc(CN(C)C[C@H]2OCCCC[C@H](C)Oc3ccc(NS(=O)(=O)c4ccc(C)cc4)cc3C(=O)N([C@@H](C)CO)C[C@H]2C)cc1 | inactive: 0.999
C[C@@H]1CN([C@@H](C)CO)C(=O)c2cccc(NC(=O)C3CCOCC3)c2O[C@@H]1CN(C)C(=O)Nc1ccc2c(c1)OCO2 | inactive: 1.01
CN(C)C(=O)c1cc2c(c(-c3cccc(/C=C/c4ccccc4)c3)n1)[C@H](CCO)N([S@@](=O)C(C)(C)C)C2 | inactive: 0.992

SMILES | relative growth
C[C@@H]1CN([C@H](C)CO)C(=O)Cc2cc(NS(=O)(=O)c3cn(C)cn3)ccc2O[C@@H]1CN(C)C(=O)Nc1ccc2c(c1)OCO2 | inactive: 1.01
O=C(C[C@H]1CC=CCC[C@H](Cc2ccc(F)cc2)C(=O)OC[C@H](Cc2ccccc2)NC1=O)NCCO | inactive: 0.973
C[C@@H]1CN([C@@H](C)CO)C(=O)c2cc(NC(=O)CCC(F)(F)F)ccc2O[C@@H](C)CCCCO[C@@H]1CN(C)S(=O)(=O)c1ccc(F)cc1 | inactive: 1.01
C[C@@H]1CN([C@H](C)CO)C(=O)c2cccc(NS(=O)(=O)c3ccccc3)c2O[C@H]1CN(C)Cc1ccncc1 | inactive: 0.956
COc1ccc(S(=O)(=O)Nc2cccc3c2O[C@H](CN(C)Cc2ccc(Oc4ccccc4)cc2)[C@H](C)CN([C@H](C)CO)C3=O)cc1 | inactive: 0.974
Cc1ccc(S(=O)(=O)N(C)C[C@H]2OCCCC[C@H](C)Oc3ccc(NC(=O)CCC(F)(F)F)cc3C(=O)N([C@@H](C)CO)C[C@H]2C)cc1 | inactive: 1.02
C[C@@H]1CN([C@@H](C)CO)C(=O)c2cc(NC(=O)Nc3ccc(C(F)(F)F)cc3)ccc2O[C@@H]1CN(C)S(=O)(=O)c1ccc(Cl)cc1 | inactive: 1.04
CNC[C@H]1OCCCC[C@@H](C)Oc2ccc(NC(=O)Nc3cccc4ccccc34)cc2C(=O)N([C@@H](C)CO)C[C@@H]1C | inactive: 0.985
C[C@@H]1CN([C@H](C)CO)C(=O)c2cc(NC(=O)CCC(F)(F)F)ccc2O[C@@H](C)CCCCO[C@H]1CN(C)Cc1ccncc1 | inactive: 0.992
CC(C)c1c(C(=O)Nc2ccccc2)c(-c2ccccc2)c(-c2ccc(F)cc2)n1CCC(O)CC(O)CC(=O)[O-].[Ca+2] (configuration not stated) | inactive: 0.966
C[C@H](CO)N1C[C@H](C)[C@H](CN(C)Cc2ccc(C(F)(F)F)cc2)OCCCC[C@H](C)Oc2ccc(NS(=O)(=O)c3ccc(F)cc3)cc2C1=O | inactive: 0.879
CC(=O)c1ccc(OCc2nnn(CC(=O)NS(=O)(=O)Cc3ccccc3)c2-c2ccccc2)cc1 | inactive: 0.983
CC/C(=C\C(=N\O)C(N)=O)[C@@H](C)[N+](=O)[O-] | inactive: 0.979
COC(CNC1=Nc2ncccc2OC1)OC | inactive: 1
COc1ccc(NC(=O)Nc2ccc3c(c2)CC(=O)N([C@@H](C)CO)C[C@H](C)[C@@H](CN(C)CC2CCCCC2)O3)cc1 | inactive: 1
C[C@@H]1CN([C@@H](C)CO)C(=O)c2cc(NC(=O)Nc3cccc4ccccc34)ccc2O[C@@H]1CN(C)Cc1ccc(Oc2ccccc2)cc1 | inactive: 1.04
O=C1CSC(=S)N1 | inactive: 0.986
C[C@H](CO)N1C[C@H](C)[C@H](CN(C)CC2CCCCC2)Oc2c(NC(=O)Nc3ccc(C(F)(F)F)cc3)cccc2C1=O | inactive: 0.963
Cc1noc(C)c1NC(=O)Nc1ccc2c(c1)C(=O)N([C@H](C)CO)C[C@H](C)[C@H](CN(C)Cc1ccncc1)OCCCC[C@@H](C)O2 | inactive: 1.01
C[C@H]1CN([C@@H](C)CO)C(=O)c2cccc(NC(=O)Nc3ccccc3)c2O[C@H]1CN(C)Cc1ccc(C(F)(F)F)cc1 | inactive: 0.915
